# Assay results from PubChem BioAssay AID1030 (National Center for Advancing Translational Sciences (NCATS), 2008).
# About 16,000 (7.3%) of roughly 220,000 compounds were called active. The inconclusive results got no clear call from the source; some entries with a clear call stand among them for comparison. Calls follow the shape of the dose curve; as a rule, active = well fitted inhibition curve with a large enough effect (not every such curve was filed as active); inconclusive = small, poorly fitted or top-dose-only effect, or another doubt; inactive = no such curve, though single readings can be large or run the other way. No potency is given beside an inconclusive call; the fits are too rough.
# Target: Aldehyde dehydrogenase 1A1 (Homo sapiens) (UniProt P00352)
# UniProt P00352, sequence (P00352 whole entry, looked up): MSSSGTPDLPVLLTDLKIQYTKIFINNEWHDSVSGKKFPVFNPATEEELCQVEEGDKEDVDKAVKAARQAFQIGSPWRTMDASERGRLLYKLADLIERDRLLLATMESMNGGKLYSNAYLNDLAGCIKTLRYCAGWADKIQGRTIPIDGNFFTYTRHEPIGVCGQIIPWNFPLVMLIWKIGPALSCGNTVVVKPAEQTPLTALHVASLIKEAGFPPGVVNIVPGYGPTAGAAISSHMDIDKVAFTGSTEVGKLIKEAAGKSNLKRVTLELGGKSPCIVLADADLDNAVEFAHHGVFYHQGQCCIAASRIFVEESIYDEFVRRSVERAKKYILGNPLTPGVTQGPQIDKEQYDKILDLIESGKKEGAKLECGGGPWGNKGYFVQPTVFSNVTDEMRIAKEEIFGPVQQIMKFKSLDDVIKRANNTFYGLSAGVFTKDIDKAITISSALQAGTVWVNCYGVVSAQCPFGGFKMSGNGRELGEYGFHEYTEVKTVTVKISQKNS
# Assay: qHTS Assay for Inhibitors of Aldehyde Dehydrogenase 1 (ALDH1A1)
# Details: Purified ALDH1A1, NADH fluorescence, propionaldehyde substrate; series mostly up to 75.3 µM
# Potency is read from the fitted curve at half-maximal effect; tags tell the direction and shape of the fitted curve.
row,SMILES,Potency
1,O=C(CSCCO)N1CCc2ccccc21,"inconclusive [inhibitor, single point]"
2,COc1ccc(OC)c(CN2CCC(CO)(CCOc3ccccc3)CC2)c1,"inconclusive [inhibitor, single point]"
3,O=C(CSc1ccc2ccccc2c1)NCCc1ccc(O)c(O)c1,active: 25.1 µM
4,CCOc1cc(C)c(C(C)C)cc1S(=O)(=O)n1ccc(C)n1,"inconclusive [inhibitor, single point]"
5,Cc1ccc(NC(=O)CC(C)N2CCCC2)cc1 (centres undefined),"inconclusive [inhibitor, single point]"
6,O=C(N/N=C\c1ccc(Oc2ccccc2)cc1)c1csnn1,inactive
7,O=C(NC1CCCc2ccccc21)c1ccc2c(c1)OCO2 (centres undefined),"inconclusive [inhibitor, single point]"
8,CCc1nnc(NC(=O)CSc2nnc(COc3ccccc3)n2Cc2ccccc2)s1,inactive
9,COc1ccc(CNC(=O)C(NS(=O)(=O)c2ccc3c(c2)CCCN3C(C)=O)C(C)C)cc1 (centres undefined),"inconclusive [inhibitor, partial curve]"
10,COCCCNC(=S)NCCNc1nc2cc(C)c(C)cc2cc1C#N,"inconclusive [inhibitor, partial curve]"
11,O=C1c2ccccc2NC(c2ccc(F)cc2)N1Cc1ccco1 (centres undefined),"inconclusive [inhibitor, partial curve]"
12,COC(=O)c1[nH]c2ccc(C)cc2c1NC(=O)CN1CCN(Cc2ccccc2)CC1,"inconclusive [inhibitor, partial curve]"
13,CCNC(=S)NS(=O)(=O)c1ccc(C)cc1,"inconclusive [inhibitor, single point]"
14,S=C(c1cn(CCOc2cccc3ccccc23)c2ccccc12)N1CCCC1,active: 28.2 µM
15,CC(C)(C)C(=O)Nc1sc2c(c1-c1nc3ccccc3[nH]1)CCCC2,"inconclusive [inhibitor, partial curve]"
16,Cc1sc2nc(CSCC(=O)NC(C)(C)C)[nH]c(=O)c2c1C,"inconclusive [inhibitor, single point]"
17,Cc1cc(C)n2ncc(C(=O)NCc3ccccc3)c2n1,"inconclusive [inhibitor, partial curve]"
18,COc1cc2c(cc1OC)CN(CC(=O)Nc1ccc(C#N)cc1)CC2,"inconclusive [inhibitor, single point]"
19,Cc1ccc(OCC(=O)NNC(=O)C(C)Sc2ncnc3sc(C)c(C)c23)cc1 (centres undefined),"inconclusive [inhibitor, single point]"
